Test results: paper PMC5892938
This is one part of the list. At the low end of the ranking the order means little.
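Note: DESeq read counts versus GST-SBP nonspecific binding control pulldown.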

Each sequence was assayed against GST-SBP-SLBP (stem-loop binding protein) (UniProt Q14493) (assay: targeted RNA Bind-n-Seq). Conditions: RBNS binding buffer: 25 mM Tris pH 7.5, 150 mM KCl, 3 mM MgCl2, 0.1% Tween, 0.5 mg/mL BSA, 1 mM DTT; 27 nM protein, 750 pM RNA pool; temperature not stated; high values mean tight binding.
For “GGUCACGUCUCAAUCAACUCUUUUCCCAGGGAAAGCCCUGGCUAUCUCAACAGCUCGCAGUCAAG”, the binding signal (log2 fold change) was 0.057.
In the case of “GGUCACGUCUCAAUCAACUCUUUUUCAGGAGUUUUCUCCUGUUUUGUCAACAGCUCGCAGUCAAG”, the binding signal (log2 fold change) is reported as -0.0971.
With “GGUCACGUCUCAAUCAACUCACUUGAGGGGGGGAAAACCCCUUUACCCUCUACAUCAACAGCUCGCAGUCAAG” the binding signal (log2 fold change) was -0.31.
Work on “GGUCACGUCUCAAUCAACUCUACUCCAGGAGUUUUCUCCUGUAAUGUCAACAGCUCGCAGUCAAG” yielded a binding signal (log2 fold change) of 0.087.
Work on “GGUCACGUCUCAAUCAACUCUUUCUCCAGGGAAAACCCUGGCUUUCUCAACAGCUCGCAGUCAAG” yielded a binding signal (log2 fold change) of 0.12.
In the case of “GGUCACGUCUCAAUCAACUCUAAAGAGGGGGGGAAAACCCCUUUACCCUCCAUCUCAACAGCUCGCAGUCAAG”, the binding signal (log2 fold change) is reported as 0.188.
“GGUCACGUCUCAAUCAACUCAUAAGAGGGGGGGAAAACCCCUUUACCCUCAUUUUCAACAGCUCGCAGUCAAG” was tested, and the binding signal (log2 fold change) was -0.65.
For “GGUCACGUCUCAAUCAACUCAUCAGAGGGGGGGAAAACCCCUUUACCCUCAACUUCAACAGCUCGCAGUCAAG”, the binding signal (log2 fold change) was 0.39.
“GGUCACGUCUCAAUCAACUCACUAGAGGGGGGGAAAACCCCUUUGCCCUCAAUUUCAACAGCUCGCAGUCAAG” showed a binding signal (log2 fold change) of -0.182.
In the case of “GGUCACGUCUCAAUCAACUCUUUAGAGGGGGGGAAAACCCCUUUACCCUCAACCUCAACAGCUCGCAGUCAAG”, the binding signal (log2 fold change) is reported as -0.0524.
For “GGUCACGUCUCAAUCAACUCUUUUUCAGGAGUUUACUCCUGUUAUUUCAACAGCUCGCAGUCAAG”, the binding signal (log2 fold change) was 0.169.
With “GGUCACGUCUCAAUCAACUCCUAAGAGGGGGGGAAAACCCCUUUACCCUCAUACUCAACAGCUCGCAGUCAAG” the binding signal (log2 fold change) was 0.0238.
With “GGUCACGUCUCAAUCAACUCAACUUCAGGAGUUUACUCCUGUAAUUUCAACAGCUCGCAGUCAAG” the binding signal (log2 fold change) was 0.174.
“GGUCACGUCUCAAUCAACUCAUUCUCAGGAGUUUUCUCCUGCAAUCUCAACAGCUCGCAGUCAAG” showed a binding signal (log2 fold change) of 0.0353.
“GGUCACGUCUCAAUCAACUCUACUCCCAGGGAAAUCCCUGGUUUACUCAACAGCUCGCAGUCAAG” showed a binding signal (log2 fold change) of -0.282.
“GGUCACGUCUCAAUCAACUCUAUAGAGGGGGGGAAAACCCCUUUACCCUCCACAUCAACAGCUCGCAGUCAAG” was tested, and the binding signal (log2 fold change) was -0.0284.
With “GGUCACGUCUCAAUCAACUCUAUUCCAGGAGUUUCCUCCUGUUAACUCAACAGCUCGCAGUCAAG” the binding signal (log2 fold change) was 0.216.
For “GGUCACGUCUCAAUCAACUCUAUCCCCAGGGAAAACCCUGGCAUUCUCAACAGCUCGCAGUCAAG”, the binding signal (log2 fold change) was -0.00304.
With “GGUCACGUCUCAAUCAACUCAUCUUCAGGAGUUUGCUCCUGUAUUCUCAACAGCUCGCAGUCAAG” the binding signal (log2 fold change) was 0.182.
In the case of “GGUCACGUCUCAAUCAACUCUUCUUCCAGGGAAAACCCUGGCAUAUUCAACAGCUCGCAGUCAAG”, the binding signal (log2 fold change) is reported as -0.0837.
“GGUCACGUCUCAAUCAACUCAGUUCCCAGGGAAAUCCCUGGCAUAUUCAACAGCUCGCAGUCAAG” showed a binding signal (log2 fold change) of 0.0159.
“GGUCACGUCUCAAUCAACUCACAAGAGGGGGGGAAAACCCCUUUGCCCUCCAAUUCAACAGCUCGCAGUCAAG” showed a binding signal (log2 fold change) of -0.246.
Work on “GGUCACGUCUCAAUCAACUCAUCAGAGGGGGGGAAAACCCCUUUGCCCUCAACAUCAACAGCUCGCAGUCAAG” yielded a binding signal (log2 fold change) of -0.112.
Work on “GGUCACGUCUCAAUCAACUCAAAAGAGGGGGGGAAAACCCCUUUGCCCUCCACAUCAACAGCUCGCAGUCAAG” yielded a binding signal (log2 fold change) of 0.0127.
With “GGUCACGUCUCAAUCAACUCUUUCCCCAGGGAAAACCCUGGUUAUCUCAACAGCUCGCAGUCAAG” the binding signal (log2 fold change) was 0.0662.
In the case of “GGUCACGUCUCAAUCAACUCAACGCCAGGAGUUUACUCCUGCUAUUUCAACAGCUCGCAGUCAAG”, the binding signal (log2 fold change) is reported as 0.0465.
“GGUCACGUCUCAAUCAACUCUUCCCCCAGGGAAACCCCUGGCAUACUCAACAGCUCGCAGUCAAG” was tested, and the binding signal (log2 fold change) was -0.267.
“GGUCACGUCUCAAUCAACUCUUUCUCCAGGGAAAUCCCUGGCAUACUCAACAGCUCGCAGUCAAG” showed a binding signal (log2 fold change) of -0.0648.
Sequence “GGUCACGUCUCAAUCAACUCAAUAGAGGGGGGGAAAACCCCUUUGCCCUCCAAUUCAACAGCUCGCAGUCAAG” has a binding signal (log2 fold change) of -0.189.
In the case of “GGUCACGUCUCAAUCAACUCAGUCUCCAGGGAAAACCCUGGCUAUCUCAACAGCUCGCAGUCAAG”, the binding signal (log2 fold change) is reported as -0.256.
“GGUCACGUCUCAAUCAACUCAAUCCCCAGGGAAAACCCUGGCUAUCUCAACAGCUCGCAGUCAAG” gave a binding signal (log2 fold change) of -0.138.
Sequence “GGUCACGUCUCAAUCAACUCUAUCCCCAGGGAAAACCCUGGCAUUUUCAACAGCUCGCAGUCAAG” has a binding signal (log2 fold change) of -0.127.
“GGUCACGUCUCAAUCAACUCAUUCCCCAGGGAAAUCCCUGGCAAACUCAACAGCUCGCAGUCAAG” showed a binding signal (log2 fold change) of 0.202.
In the case of “GGUCACGUCUCAAUCAACUCCAAAGAGGGGGGGAAAACCCCUUUGCCCUCAUUCUCAACAGCUCGCAGUCAAG”, the binding signal (log2 fold change) is reported as 0.342.
“GGUCACGUCUCAAUCAACUCAUUUUCAGGAGUUUACUCCUGUUUUCUCAACAGCUCGCAGUCAAG” was tested, and the binding signal (log2 fold change) was 0.0542.
“GGUCACGUCUCAAUCAACUCUUCCCCCAGGGAAACCCCUGGCUAACUCAACAGCUCGCAGUCAAG” was tested, and the binding signal (log2 fold change) was -0.0411.
“GGUCACGUCUCAAUCAACUCAAGUCCCAGGGAAAUCCCUGGUAAAUUCAACAGCUCGCAGUCAAG” showed a binding signal (log2 fold change) of -0.0246.
With “GGUCACGUCUCAAUCAACUCUAGUCCAGGAGUUUCCUCCUGCUUUUUCAACAGCUCGCAGUCAAG” the binding signal (log2 fold change) was -0.0403.
“GGUCACGUCUCAAUCAACUCUUCCCCAGGAGUUUCCUCCUGUUUUCUCAACAGCUCGCAGUCAAG” was tested, and the binding signal (log2 fold change) was 0.00672.
“GGUCACGUCUCAAUCAACUCAAUCCCAGGAGUUUCCUCCUGUAAACUCAACAGCUCGCAGUCAAG” was tested, and the binding signal (log2 fold change) was 0.0247.
With “GGUCACGUCUCAAUCAACUCUUCAGAGGGGGGGAAAACCCCUUUGCCCUCCAAUUCAACAGCUCGCAGUCAAG” the binding signal (log2 fold change) was -0.07.
Work on “GGUCACGUCUCAAUCAACUCUUAAGAGGGGGGGAAAACCCCUUUACCCUCACCAUCAACAGCUCGCAGUCAAG” yielded a binding signal (log2 fold change) of -0.275.
“GGUCACGUCUCAAUCAACUCAUCGUCAGGAGUUUACUCCUGUAAUUUCAACAGCUCGCAGUCAAG” showed a binding signal (log2 fold change) of 0.171.
“GGUCACGUCUCAAUCAACUCUCUAGAGGGGGGGAAAACCCCUUUACCCUCGUAAUCAACAGCUCGCAGUCAAG” gave a binding signal (log2 fold change) of -0.177.
Work on “GGUCACGUCUCAAUCAACUCCUUCGAGGGGGGGAAAACCCCUUUACCCUCCAUUUCAACAGCUCGCAGUCAAG” yielded a binding signal (log2 fold change) of -0.177.
“GGUCACGUCUCAAUCAACUCAAUCCCAGGAGUUUGCUCCUGCUUUCUCAACAGCUCGCAGUCAAG” was tested, and the binding signal (log2 fold change) was 0.0349.
In the case of “GGUCACGUCUCAAUCAACUCUUUCCCAGGAGUUUCCUCCUGCAUUUUCAACAGCUCGCAGUCAAG”, the binding signal (log2 fold change) is reported as -0.0132.
